# Laboratory results from PubChem BioAssay (Tox21).
# Inconclusive means that the source gave no clear call. Such entries were picked first, then a sample of the others. Potencies of inconclusive entries are doubtful fits and often do not repeat. Activity calls are given as the source filed them. Calls come from the whole dose curve; as a rule, active = well fitted cell-killing curve with a large enough effect in the repeat runs; inconclusive = weak or mixed curves; inactive = flat fitted curve, though single readings scatter.
# Assay: qHTS RealTime-Glo MT Cell Viability Assay in HepG2 cells - 16 hour (AID 1224885); note: nearly all actives have a fitted effect of over 50% in size
# Details: RealTime-Glo luminescence; series mostly up to 76.8 µM; activity change, negative = cytotoxic: at the top concentration
# From the text: U.S. Tox21 Program National Center for Advancing Translational Sciences [NCATS] NIH Chemical Genomics Center [NCGC] U.S. Environmental Protection Agency [EPA] National Institutes of Environmental Health Sciences [NIEHS] National Toxicology Program [NTP] U.S. Food and Drug Administration [FDA] Tox21 Assay Overview: Measure of cell viability is critical in the cell-base assay. Analysis of cell viability is necessary for the characterization of cell responses to cytotoxic drugs and environmental stress. A RealTime-Glo MT Cell Viability Assay to monitor cell viability in real time of continues cell culture during 40 hours of compound treatment was used to screen Tox21 10K library compounds in HepG2 cells. The RealTime-Glo MT Cell Viability Assay is a nonlytic, homogeneous, bioluminescent method to measure cell viability in real time using a simple, plate-based method. The assay involves adding NanoLuc luciferase and a cell-permeant prosubstrate to cells in culture. Viable cells reduce the proprietary prosubstrate to generate a substrate for NanoLuc luciferase. This substrate diffuses from cells into the surrounding culture medium, where it is rapidly used by the NanoLuc Enzyme to produce a luminescent signal. The signal correlates with the number of viable cells, making the assay well suited for cytotoxicity studies.
# Tox21 Assay Protocol Summary: The mixture of HepG2 cell suspension and reagents were dispensed at 600cells/6 ul/well in 1536-well tissue culture treated black solid bottom plates using a Multidrop dispenser. After the assay plates were incubated at a 37 C/5% CO2 incubator for 5 hours, 23 nL of compounds dissolved in DMSO, positive and negative controls was transferred to the assay plate by a pintool work station. The plates were incubated at 37 C for 40 hours. The luminescence intensity were measured at 0h, 8h, 16h, 24h, 32h and 40h time points using ViewLux plate reader during compound treatment.
# % is set by controls: 0 for no effect and ±100 for the full control effect; potency is the fitted concentration of half-maximal effect; tags give direction and shape of the fitted curve.
SMILES,"activity change, negative = cytotoxic",Potency
CCc1nccnc1CC,inactive: -1.18% [at 15.8 µM],
O=C(CCCCCCC(=O)Nc1ccccc1)NO,,"inconclusive: 8.49 µM [cytotoxic, partial curve]"
N[C@H]1C(O)O[C@H](CO)[C@H](O)[C@@H]1O (stereo not given in full),inactive: 0.0642%,
CC(=O)OC(C(=O)c1ccccc1)c1ccccc1 (stereo not given),inactive: -0.21%,
CCOC(=O)CN1CCCC1=O,inactive: 0.39% [at 35.3 µM],
O=S(=O)(O)c1ccc(N=Nc2c(O)ccc3cc(S(=O)(=O)O)ccc23)cc1,,"inconclusive: 49 µM [cytotoxic, partial curve]"
C=C(C)CCCC,inactive: 1.68%,
CCOC(=O)OC(=O)OCC,inactive: 0.623%,
c1coc(CNc2ncnc3nc[nH]c23)c1,inactive: -0.611%,
C=C(C)C(=O)OCCOC(=O)CC(C)=O,inactive: 2.82%,
N[C@@H](Cc1cc(I)c(Oc2ccc(O)c(I)c2)c(I)c1)C(=O)O,,"inconclusive: 45.5 µM [cytotoxic, partial curve, poor fit]"
O=C(O)c1cc(Cl)cc([N+](=O)[O-])c1Cl,inactive: 5.25%,
CCCC(=O)C(CC)Sc1ccoc1C (stereo not given),,"inconclusive: 21.9 µM [cytotoxic, single point]"
CCC(C)c1nccnc1OC (stereo not given),inactive: -2.87%,
Cc1cccc(Cl)c1,inactive: 1.08%,
CS(=O)(=O)c1ccc([C@@H](CC2CCCC2)C(=O)Nc2cnccn2)cc1Cl,,"inconclusive: 38.9 µM [cytotoxic, partial curve]"
CCC[Si](OC)(OC)OC,inactive: 1.71%,
C=CC(C)C#N (stereo not given),inactive: -2.23%,
Cc1cc(=O)[nH]c(=O)[nH]1,inactive: -0.602%,
C=C(C)C(=O)OCCCCCCCC(C)C,inactive: 0.213%,

SMILES,"activity change, negative = cytotoxic",Potency
CCOc1cc(N)c(Cl)cc1C(=O)NCC1CN(Cc2ccc(F)cc2)CCO1 (stereo not given),,"inconclusive: 26.8 µM [cytotoxic, partial curve, poor fit]"
C1=CCCC1,inactive: 0.892%,
COc1ccc(OC)c(NC(=O)CC(C)=O)c1,inactive: 1.27%,
O=S(O)CO,inactive: 0.38%,
CC1(CO)CN(c2ccccc2)NC1=O (stereo not given),inactive: 0.0447%,
COc1ccc(Cc2cnc(N)nc2N)cc1OC,inactive: 2.48% [at 35.3 µM],
CC(=O)S[C@H](C(=O)N[C@H]1Cc2ccccc2[C@H]2CCC[C@@H](C(=O)O)N2C1=O)C(C)C,inactive: 1.84%,
CC(C)(C)c1cc(CCC(=O)NCCCCCCNC(=O)CCc2cc(C(C)(C)C)c(O)c(C(C)(C)C)c2)cc(C(C)(C)C)c1O,,"inconclusive: 21.9 µM [cytotoxic, full curve]"
O=C=NCc1cccc(CN=C=O)c1,inactive: 0.437% [at 15.8 µM],
CCCC[N+](C)(CCCC)CCCC,inactive: 0.59%,
Nc1ccc(S(=O)(=O)O)c(N)c1,inactive: 2.54%,
CC(C)CCCCCCN,inactive: 1.79%,
N#CCCNCCC#N,inactive: -0.706%,
CC(=O)OC(C)OC(=O)C(C)c1ccc(-c2ccccc2)c(F)c1 (stereo not given),inactive: 2.32% [at 35.3 µM],
O=C(O)COC(=O)Cc1ccccc1Nc1c(Cl)cccc1Cl,inactive: 6.92% [at 35.3 µM],
Nc1ccc(S(=O)(=O)Nc2ccnn2-c2ccccc2)cc1,inactive: -1.35% [at 15.8 µM],
N[C@H](C(=O)O)[C@@H](O)c1ccc(O)c(O)c1,inactive: -0.0696% [at 35.3 µM],
Cc1ccnc(NS(=O)(=O)c2ccc(N)cc2)n1,inactive: -3.71% [at 35.3 µM],
CCC(C)S (stereo not given),inactive: -0.5% [at 2.72 µM],
CC(=O)OCc1ccccc1,,inactive
